Hit rate of the full screen: of about 43,000 compounds, about 200 (0.47%) were called active. Another 12% or so got no clear call; they are omitted. The call rests on the fitted dose curve; in most records, active means well fitted cell-killing curve with a large enough effect; inconclusive means small, poorly fitted or top-dose-only effect, or effect the other way; inactive means flat fitted curve, though single readings scatter. The list shows a part of the results.
Assay: Cell viability qHTS assay in S16 Pmp22-F2sN cells; further: nearly all actives have a fitted effect of over 65% in size
Details: S16 Pmp22-F2sN Schwann cells (luciferase reporters placed in the Pmp22 gene) viability, CellTiter-Glo, 24 h; series mostly up to 57.5 µM; activity change, negative = cytotoxicity: at the top concentration
How it was run: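 Seed 500-1,000 S16 Pmp22-F2sN cells per well in phenol-red-free DMEM with 10% heat-inactivated FBS; pin-add 23 nL compound; incubate 24 h at 37C; add CellTiter-Glo, wait 15 min protected from light; read luminescence.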
On the % scale 0 is the no-effect control and ±100 the full control effect.

Row | Compound | activity change, negative = cytotoxicity
1 | COc1ccccc1C(=O)NCc1nnnn1-c1ccc(C)c(C)c1 | inactive: 7.15%
2 | COc1ccc(-c2csc(-c3nc(-c4ccc(Br)s4)cs3)n2)cc1F | inactive: -1.98%
3 | CCC1CCCCN1CCCNC(=O)c1c(O)nc2ccccn2c1=O (stereo unspecified) | inactive: -2.96%
4 | COc1cccc(CN2C(=O)c3ccccc3Sc3ccc(C(=O)NCCc4ccc(C)cc4)cc32)c1 | inactive: 11.2%
5 | Cc1ccc(CSC2=Nc3ccccc3C3=NC(CCC(=O)NCc4cccs4)C(=O)N23)cc1 (stereo unspecified) | inactive: 4.64%
6 | O=C(NCC(c1ccc2c(c1)OCO2)N1CCN(c2ccccc2)CC1)C(=O)Nc1cccc(F)c1 (stereo unspecified) | inactive: -1.74%
7 | CCN(CC)C(=O)CSc1nc2cc3c(cc2c(=O)n1CCCCCC(=O)NCc1ccc(OC)cc1)OCO3 | inactive: 1.38%
8 | O=C(NCc1ccc2c(c1)OCO2)c1ccc2c(c1)N(Cc1cccc(Cl)c1)C(=O)c1ccccc1S2=O (stereo unspecified) | inactive: -0.629%
9 | Cc1c(Cl)cccc1NC(=O)C1CCCN(c2nnc(-n3c(C)ccc3C)s2)C1 (stereo unspecified) | inactive: -7.77%
10 | COc1ccc(C2=C(C)C(=O)N(Cc3ccc(C(=O)Nc4cccc(F)c4)cc3)S2(=O)=O)cc1 | inactive: -17.1%
11 | CC1CCCN(c2nc3c(S(=O)(=O)c4ccc(C(C)C)cc4)nnn3c3ccsc23)C1 (stereo unspecified) | inactive: 12.8%
12 | Cc1ccc(-c2nc3c(C)cccn3c2Nc2ccccc2C)s1 | inactive: 11.9%
13 | Cc1ccc(F)cc1NC(=O)Cn1c(=O)nc(-c2ccccc2F)c2cc(Cl)ccc21 | inactive: 8.9%
14 | CCOc1ccc(CCNC(=O)c2cc3c(=O)n(C)c4ccccc4c3n2C)cc1OCC | inactive: 19.5%
15 | COC(=O)c1ccc(NC(=O)CN2CCN(S(=O)(=O)c3ccc(Br)cc3)CC2)cc1 | inactive: 7.59%
16 | COc1ccc(S(=O)(=O)N(CC(=O)Nc2cc(C)ccc2OC)Cc2ccccc2)cc1 | inactive: -9.89%
17 | CCOc1ccccc1NS(=O)(=O)c1ccc2[nH]c3c(c2c1)CCCCC3 | inactive: 17.6%
18 | Cc1ccc(Cn2c(=O)n(-c3ccc(C)cc3)c(=O)c3c2c2cc(C)ccc2n3C)cc1 | inactive: 8.99%
19 | N#C/C(=C\c1cccc(F)c1)c1nc(-c2cc3c(ccc4ccccc43)oc2=O)cs1 | inactive: 2.82%
20 | CCOc1cc(C2c3c(oc4cc(C)cc(C)c4c3=O)C(=O)N2CCO)ccc1O (stereo unspecified) | inactive: 0.0946%
21 | CSc1cccc(NC(=O)C2CCCN(C(=O)c3cnn(-c4ccc(F)cc4)c3-n3cccc3)C2)c1 (stereo unspecified) | inactive: -20%
22 | O=C(CSc1cn(CC(=O)N2CCCCC2)c2ccccc12)NCc1ccc(F)cc1 | inactive: 0.511%
23 | Cc1ccc(OCC(=O)Nc2ccc3nc(SCC(=O)Nc4ccc(C)cc4C)sc3c2)cc1 | inactive: 3.46%
24 | CCCNC(=O)c1ccccc1NC(=O)c1nsc2ccccc12 | inactive: 9.19%

Row | Compound | activity change, negative = cytotoxicity
25 | COc1cccc(NC(=O)CSc2ncc3c(n2)-c2ccc(Cl)cc2N(C)S3(=O)=O)c1 | inactive: -7.14%
26 | CC(C)(C)c1ccc(C(=O)NC2(C(F)(F)F)NC(=O)N(CCc3ccccc3)C2=O)cc1 (stereo unspecified) | inactive: 12.3%
27 | CCOc1ccc(CNC(=O)C2CCN(C(=O)N3CC(CC)Oc4ccccc43)CC2)cc1 (stereo unspecified) | inactive: 0.937%
28 | Cc1c(Cl)cccc1NC(=O)N1CCOc2ccccc21 | inactive: -0.996%
29 | COC(=O)c1sccc1S(=O)(=O)N1CCN(c2ccc(C)cc2C)CC1 | inactive: 0.359%
30 | CCOc1ccccc1NC(=O)C(=O)NCCc1sc2nc(-c3ccc(OC)cc3)nn2c1C | inactive: -0.548%
31 | Cc1ccc(NC(=O)NCCOCCn2c(=O)oc3ccccc32)cc1C | inactive: 0.576%
32 | Cc1ccccc1NC(=O)CSc1nc(-c2ccccc2)cn1-c1ccccc1F | inactive: -1.86%
33 | O=C(NC1CCCC1)c1ccc2c(=O)n(Cc3ccccc3)c(SCc3cccc([N+](=O)[O-])c3)nc2c1 | inactive: -8.18%
34 | Cc1ccccc1OCc1nc2c3cnn(-c4ccccc4F)c3ncn2n1 | inactive: 5.95%
35 | COCCNC(=O)CSc1nc2cc3c(cc2c(=O)n1CCCC(=O)NCc1ccc2c(c1)OCO2)OCO3 | inactive: -0.765%
36 | COc1cccc(-n2c(-c3ccccc3F)nc3c(cnn3-c3ccc(C)cc3)c2=O)c1 | inactive: -2.22%
37 | CCOC(=O)C(Cc1ccccc1)NC(=O)CCc1c(C)nc2nc(C)nn2c1C (stereo unspecified) | inactive: 16%
38 | Cc1ccc(Cl)cc1N1CCN(C(=O)Cn2c(-c3cccs3)cc3cc(F)ccc32)CC1 | inactive: -1.71%
39 | CCOC(=O)Cn1c(=O)cc(C(F)(F)C(F)(F)F)c2c(C)nn(CC)c21 | inactive: 6.58%
40 | CCc1ccc(OCC(=O)Nc2cc(-c3ccc(C)cc3)no2)cc1 | inactive: -25.7%
41 | COc1ccc(CNC(=O)CSc2ncc3c(n2)-c2cc(Cl)ccc2N(Cc2ccccc2)S3(=O)=O)cc1 | inactive: 3.72%
42 | CCOC(=O)CSC1=Nc2ccccc2C2=NC(CCC(=O)NCc3ccc(OC)cc3)C(=O)N12 (stereo unspecified) | inactive: 5.46%
43 | Cc1ccccc1N1CCN(S(=O)(=O)c2ccccc2)CC1 | inactive: 2.18%
44 | Oc1c(C(c2ccccc2F)N2CCN(c3ccccc3F)CC2)sc2nc(-c3ccco3)nn12 (stereo unspecified) | inactive: 14.4%
45 | Cc1cc(OCCn2c(CCNC(=O)C3CCCCC3)nc3ccccc32)ccc1Cl | inactive: -28.4%
46 | Cc1ccc(-c2nc(SCC(=O)NCC3CCCO3)c3c(=O)n(C)c(=O)n(C)c3n2)cc1 (stereo unspecified) | inactive: 5.38%
47 | Cc1cc(C)c(NC(=O)CSc2nccn2-c2cccc(Cl)c2)c(C)c1 | inactive: 5.93%
48 | COc1ccc(CNC(=O)CCC2N=C3c4ccccc4N=C(SCc4ccccc4F)N3C2=O)cc1 (stereo unspecified) | inactive: -20.5%

Row | Compound | activity change, negative = cytotoxicity
49 | COc1ccc(C)cc1NS(=O)(=O)c1ccc2c3c(cccc13)C(=O)N2 | inactive: 11.7%
50 | COc1ccccc1Cn1ccn(Cc2ccc(C)cc2)c(=O)c1=O | inactive: -7%
51 | CCCn1c(SCC(O)c2ccccc2)nc2ccccc21 (stereo unspecified) | inactive: 0.964%
52 | COc1cccc(CNC(=O)CCCn2ncn3c(cc4occc43)c2=O)c1 | inactive: 13.4%
53 | COc1ccc(-c2cc3c(=O)n(CC(=O)Nc4cc(F)ccc4F)ccn3n2)cc1OC | inactive: -0.656%
54 | Cc1nn(-c2ccccc2)c2sc(C(=O)Nc3ccc(Br)cc3)cc12 | inactive: -0.175%
55 | O=C1COc2ccc(-c3cc(-c4ccccc4)c4c(n3)-c3ccccc3OC4)cc2N1 | inactive: 17%
56 | O=C(NCCc1ccc(Cl)cc1)c1ccc2c(c1)N(Cc1ccc(F)cc1)C(=O)CS2 | inactive: -25.4%
57 | COC(=O)c1sc(-c2ccccc2)cc1NC(=O)Nc1ccc(Cl)cc1 | inactive: -23.6%
58 | CC1=C(C(=O)NCc2ccccc2C)C2(CCCCCC2)OC1=O | inactive: -5.9%
59 | CCCCN(Cc1cc2ccccc2[nH]c1=O)C(=O)c1cccc(Cl)c1 | inactive: -0.297%
60 | O=C(Oc1ccc(F)cc1)c1nc(SCc2ccc(F)cc2)ncc1Cl | inactive: 10.4%
61 | COc1ccc(NC(=O)CCS(=O)(=O)c2ccc3c(c2)oc(=O)n3C)cc1OC | inactive: -0.0665%
62 | Cc1ccc(-c2noc(-c3ccccc3NC(=O)C3CC(=O)N(c4ccc(C)cc4)C3)n2)cc1 (stereo unspecified) | inactive: 12.5%
63 | COc1cc2nc(Nc3cccc(C)c3)nc(N)c2cc1OC | inactive: -26.9%
64 | Cc1ccc(C(=O)NCC(c2ccco2)S(=O)(=O)c2cccs2)cc1C (stereo unspecified) | inactive: -10.5%
65 | CCOc1ccc(-c2cc(NC(=O)Nc3ccc(Cl)cc3)c(C(=O)OC)s2)cc1 | inactive: 2.5%
66 | CCCSc1ncc(Cl)c(C(=O)N(Cc2cccc(Cl)c2)C2CCS(=O)(=O)C2)n1 (stereo unspecified) | inactive: -5.56%
67 | CCOC(=O)c1c(NC(=O)CCCOc2ccc(C(C)(C)C)cc2)sc2c1CCCC2 | inactive: 1.75%
68 | COc1ccc(OC)c(NC(=O)c2cnc(N3CCCCC3)c3ccccc23)c1 | inactive: 8.95%
69 | CCC(=O)N1CCc2cc(S(=O)(=O)NCCC(=O)NCc3ccc(C)cc3)ccc21 | inactive: 6.75%
70 | Cc1cccc(C(c2sc3nc(-c4ccco4)nn3c2O)N2CCN(c3ccccc3F)CC2)c1 (stereo unspecified) | inactive: 15%
71 | CCOC(=O)C1CCCN(S(=O)(=O)c2cc(Br)cc3c2N(C(C)=O)CC3)C1 (stereo unspecified) | inactive: 15.6%
72 | CCOC(=O)N1CCC(NC(=O)c2cnn(-c3ccc(C)cc3C)c2C2CCN(C(=O)OC(C)(C)C)CC2)CC1 | inactive: 45.1%

Row | Compound | activity change, negative = cytotoxicity
73 | CC(=O)c1nn(-c2ccc(OC(F)(F)F)cc2)nc1Nc1ccccc1 | inactive: -1.11%
74 | CCc1nn(CCCC(=O)NCc2ccc(C)cc2)c(=O)c2cc3occc3n12 | inactive: 15%
75 | CCOc1ccccc1N(C)C(=O)Cn1nc(Cc2ccncc2)c2ccccc2c1=O | inactive: 21.2%
76 | O=C(CN1CCCN(Cc2ccc(F)cc2)S1(=O)=O)Nc1ccc2c(c1)OCCO2 | inactive: 6.25%
77 | CN(C)c1oc(-c2ccc(COc3ccccc3)o2)nc1C#N | inactive: -29.8%
78 | COc1ccc(N2CCN(S(=O)(=O)CCNC(=O)c3cc(=O)c4ccccc4o3)CC2)cc1 | inactive: -1.6%
79 | CC(C)CN(CCNC(=O)c1cn(C)c2ccc(S(=O)(=O)N3CCCCCC3)cc2c1=O)CC(C)C | inactive: -1.56%
80 | COc1cc(NC(=O)Cn2ccn(-c3cc(C)cc(C)c3)c(=O)c2=O)cc(OC)c1 | inactive: 8.43%
81 | Cc1cc(C)cc(NC(=O)CSc2nc(=O)[nH]c3c2CCC3)c1 | inactive: -7.07%
82 | CCc1ccc(NC(=O)CC2C(=O)N(c3ccc(C)cc3)C(=O)N2C2CCCC2)cc1 (stereo unspecified) | inactive: 0.0863%
83 | CC(C)(C)c1ccc(Oc2nc3ccccn3c(=O)c2/C=C(\C#N)c2nc3ccccc3s2)cc1 | inactive: -27.5%
84 | COc1ccc2c(c1)CCc1sc(NC(=O)c3ccc(Br)cc3)nc1-2 | inactive: -19.9%
85 | CS(=O)(=O)c1cccc(-c2nnc(NC(=O)c3ccc4c(c3)OCCO4)o2)c1 | inactive: 0.541%
86 | Cc1cc(C)cc(NC(=O)CSc2nc3ncccc3[nH]2)c1 | inactive: 23.7%
87 | Cc1ccc(NC(=O)C(=O)NCC(c2ccc3c(c2)OCO3)N2CCN(C)CC2)c(C)c1 (stereo unspecified) | inactive: -13.9%
88 | Cc1ccc(NC(=O)C(Cc2ccccc2)NS(=O)(=O)c2ccc3c(c2)CCC(=O)N3)cc1 (stereo unspecified) | inactive: -14.5%
89 | Cc1cccc(NC(=O)CSc2nncn2C)c1 | inactive: -1.23%
90 | Cc1ccc(Nc2c(-c3ccc(O)cc3)nc3cccc(C)n23)cc1 | inactive: -0.857%
91 | Cc1nc(-c2ccc(Cl)cc2)sc1CCNC(=O)c1cccs1 | inactive: -10.8%
92 | CCCN(CCC)CCCNC(=O)Cn1ncc2c3ccccc3n(Cc3ccccc3)c2c1=O | inactive: -15.4%
93 | Cc1ccc(NC(=O)Cc2csc(C)n2)c(C)c1 | inactive: 4.6%
94 | Cc1ccc(C(=O)Nc2ccc(OCc3cc(=O)n4c(C)csc4n3)cc2)cc1 | inactive: 8.68%
95 | O=C(c1ccc2c(c1)N(Cc1ccccc1)C(=O)c1ccccc1S2(=O)=O)N1CCCCCC1 | inactive: -6.66%
96 | CCCOc1ccc(-c2nc(SC)[nH]c(=O)c2C#N)cc1OC | inactive: -11.4%

Source: PubChem BioAssay AID1508642 (National Center for Advancing Translational Sciences (NCATS), 2021)
